Laboratory results reported in publication PMC4336329 (PLoS ONE, 2015).
In all, about 310,000 compounds went through this assay and about 2,200 (0.71%) showed an effect of 50% or more. Effects have a minus sign here. This is one part of the list.

Target: human ether-à-go-go-related gene (hERG) potassium channel (human, UniProt Q12809)
Assay: primary screen, population patch clamp on CHO cells stably expressing hERG

human ether-à-go-go-related gene (hERG) potassium channel, sequence (Q12809 whole entry, looked up): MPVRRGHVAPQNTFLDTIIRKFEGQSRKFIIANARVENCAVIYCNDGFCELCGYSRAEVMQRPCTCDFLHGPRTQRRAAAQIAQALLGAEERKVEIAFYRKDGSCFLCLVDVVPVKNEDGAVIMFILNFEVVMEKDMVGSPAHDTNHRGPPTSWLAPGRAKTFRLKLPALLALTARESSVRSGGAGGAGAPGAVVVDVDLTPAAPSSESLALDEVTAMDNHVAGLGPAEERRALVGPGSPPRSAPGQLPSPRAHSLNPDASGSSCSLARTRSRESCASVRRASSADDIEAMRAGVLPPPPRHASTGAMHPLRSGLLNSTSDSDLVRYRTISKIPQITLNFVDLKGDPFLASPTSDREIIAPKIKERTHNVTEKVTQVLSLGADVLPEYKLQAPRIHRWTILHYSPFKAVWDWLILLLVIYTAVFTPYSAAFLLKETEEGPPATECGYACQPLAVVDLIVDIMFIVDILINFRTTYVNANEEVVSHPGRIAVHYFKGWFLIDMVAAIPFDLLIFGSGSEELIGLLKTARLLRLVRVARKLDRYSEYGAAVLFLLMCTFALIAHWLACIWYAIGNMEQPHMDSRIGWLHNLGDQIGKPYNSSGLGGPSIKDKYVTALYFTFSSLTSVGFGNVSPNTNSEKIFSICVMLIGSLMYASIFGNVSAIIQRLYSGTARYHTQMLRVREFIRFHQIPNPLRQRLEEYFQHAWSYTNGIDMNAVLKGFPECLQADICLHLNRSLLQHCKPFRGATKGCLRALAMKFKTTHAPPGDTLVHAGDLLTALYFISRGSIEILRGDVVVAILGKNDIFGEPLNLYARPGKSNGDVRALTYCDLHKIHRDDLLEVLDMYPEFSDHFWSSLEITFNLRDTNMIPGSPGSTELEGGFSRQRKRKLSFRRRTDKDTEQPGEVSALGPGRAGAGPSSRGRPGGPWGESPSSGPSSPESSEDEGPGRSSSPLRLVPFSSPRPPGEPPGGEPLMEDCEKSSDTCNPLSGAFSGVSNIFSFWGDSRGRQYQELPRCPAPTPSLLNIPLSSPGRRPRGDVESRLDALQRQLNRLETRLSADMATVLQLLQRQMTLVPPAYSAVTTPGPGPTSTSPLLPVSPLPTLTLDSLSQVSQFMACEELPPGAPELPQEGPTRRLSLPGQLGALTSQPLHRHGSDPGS

| SMILES | hERG current change (%, negative = inhibition) at 1uM [%] |
| --- | --- |
| Cc1sc2nc(SCC(=O)N3CCCC3)[nH]c(=O)c2c1C | 4.44 |
| Cc1noc(C)c1S(=O)(=O)N1CCC(C(=O)NCCN2CCC(C)CC2)CC1 | 11.8 |
| COc1ccc(C2CC(c3cccc(Cl)c3)n3nc(N)nc3N2)cc1 (centres unmarked) | 5.97 |
| COc1ccc(CN/C(C)=C(/C#N)C(N)=O)cc1OC | 3.28 |
| C[C@H](OC(=O)NCc1ccc(C(F)(F)F)cc1)[C@@H]1O[C@@]2(C)CCC[C@@H]1O2 | 12.3 |
| COc1ccc(CNC(=O)CSc2cccc3cccnc23)cc1 | 11.6 |
| CN(C)S(=O)(=O)c1ccc(NC(=O)COC(=O)C2COc3ccccc3O2)cc1 (centres unmarked) | 6.99 |
| Cc1cc(SCC(=O)N/N=C/c2ccc(O)c(O)c2)c(C)cc1Br | 10.9 |
| NC(=O)CN1C(=O)C(=O)N(Cc2ccccc2)C1=O | 13.4 |
| Cc1cc(C)c(S(=O)(=O)NCc2ccccn2)c(C)c1 | 4.51 |
| COc1ccc(N2CCN(S(=O)(=O)c3ccc4c(c3)CC(C)N4C(=O)C3CC3)CC2)cc1 (centres unmarked) | 23.4 |
| CCN(CC)S(=O)(=O)c1ccc(S(=O)(=O)Nc2ccc(C(=O)N3CCCC3)cc2)cc1 | -5.36 |
| COc1cc(C(=O)NCCCN2CCCC2=O)cc(Br)c1OCc1ccccc1 | -33.2 |
| COc1ccc(CCC(=O)NCc2cn3ccsc3n2)cc1 | 13.1 |
| N#CC1=C(N)C2=C(N3CCCCC3)CCCC2C1(C#N)C#N (centres unmarked) | -3.03 |
| O=C(CCSc1nc(-c2ccco2)cc(C(F)(F)F)n1)N1CCCc2ccccc21 | 9.09 |
| O=C(O)C(=O)O.c1cc2nc(C34CC5CC(CC(C5)C3)C4)[nH]c2cn1 | 3.25 |
| Cc1cc(-c2ccccc2)nc2cc(C(=O)OC(C)C)nn12 | 15.4 |
| N#Cc1c(-c2ccccc2)cc(-c2cccs2)nc1SCC(=O)O | -3.04 |
| COc1ccc(N(C(=O)c2ccncc2)S(=O)(=O)c2ccc(F)cc2)cc1 | 16.6 |
| CS(=O)(=O)Nc1ccc(C(=O)NCc2ccco2)cc1 | 16.3 |
| C/C(=N/NC(=O)CN1CCN(S(=O)(=O)c2ccc(Br)cc2)CC1)c1ccco1 | -17.3 |

| SMILES | hERG current change (%, negative = inhibition) at 1uM [%] |
| --- | --- |
| CCOC(=O)NC(=O)CSc1ccc2ccccc2n1 | 15.6 |
| Cc1ccc(NC(=S)C2=C(O)c3ccccc3N(C)S2(=O)=O)cc1 | 8.11 |
| CN(CC(=O)Nc1ccc(F)cc1)C(=O)Cn1nnc(-c2ccccc2)n1 | 7.23 |
| Cc1ccc(F)cc1N=Cc1c(O)c2ccccc2oc1=O | 13.4 |
| CC(=O)Nc1cc2nc(C)n(Cc3ccccc3)c2nc1C | 3.72 |
| CCC(c1ccccc1)c1nc(-c2ccccn2)no1 (centres unmarked) | 14.8 |
| CC(C)(C)c1ccc(C(=O)NC(=S)N2CCCCCC2)cc1 | 5.47 |
| CCCC1=NN(c2ccc([N+](=O)[O-])cc2)C(=O)/C1=C\N(C)C | 11.6 |
| O=C(Cn1c(=O)n(Cc2ccco2)c(=O)c2c3c(sc21)CCCCC3)Nc1ccccc1 | -3.13 |
| Cc1ccc2c(c1)N(Cc1cccc(C#N)c1)C=NS2(=O)=O | 13.8 |
| O=C(Cc1cccs1)Nc1cccc(C(=O)Nc2ccco2)c1 | 3.06 |
| S=c1[nH]nc(-c2cc(-c3ccccc3)n[nH]2)n1/N=C/c1cccc(Cl)c1 | 20.6 |
| Cc1cc(N)n(-c2ccc([N+](=O)[O-])cc2)n1 | 2.87 |
| CCOC(=O)c1c(NC(=O)C2CCN(S(=O)(=O)c3cccs3)CC2)sc(C)c1C | 3.89 |
| COC(=O)c1ccc[n+](CC(=O)c2ccc(Br)cc2)c1.[Cl-] | -8.7 |
| COc1ccccc1NC(=S)NNC(=O)c1ccccc1Br | 2.87 |
| N#Cc1c(NC(=O)c2cccc(S(=O)(=O)Nc3ccc(C(=O)O)cc3)c2)sc2c1CCCC2 | -1.13 |
| CCc1ccc(/C=N/N2CCN(c3ccccn3)CC2)cc1 | -0.434 |
| Cc1cc(C(=O)NNc2ccc(C(C)C)cc2)n(C(C)(C)C)n1 | 11.6 |
| CCC(C)NCCCOc1ccc(Cl)cc1C(C)(C)C.O=C(O)C(=O)O (centres unmarked) | 15.2 |
| COc1ccc(NC(=O)Cc2ccc(Cl)cc2)cc1NC(=O)c1ccco1 | 4.7 |
| CC1(CC(=O)N/N=C/c2ccc(-c3cccc(C(F)(F)F)c3)o2)OCCO1 | 1.45 |
